Assay results reported in paper PMC6254359.
No constants are given. Whether binding was seen depends on the method and setting. Some binding calls cover weakened binding; strength is not graded here.

Sequences of proteins named here, by UniProt entry; tags and fusion partners are left off. A change or cut given only in a name is not applied to a line headed by its entry. A line that says so, or that is headed by a name, gives the form on record, which may keep a tag or linker. Residues count along the entry.
W196A RhT5 88–296 EK/RD (Q0PF16, form named): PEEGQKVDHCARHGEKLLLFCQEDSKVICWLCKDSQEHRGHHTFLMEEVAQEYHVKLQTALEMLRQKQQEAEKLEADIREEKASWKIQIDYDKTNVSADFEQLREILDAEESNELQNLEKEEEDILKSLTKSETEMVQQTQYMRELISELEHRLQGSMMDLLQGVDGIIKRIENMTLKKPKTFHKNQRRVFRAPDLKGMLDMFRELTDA
Trim5α from Rhesus macaque, Bbox coiled-coil regions, residues 88–296 with the E120K/R121D mutation (Q0PF16, form named): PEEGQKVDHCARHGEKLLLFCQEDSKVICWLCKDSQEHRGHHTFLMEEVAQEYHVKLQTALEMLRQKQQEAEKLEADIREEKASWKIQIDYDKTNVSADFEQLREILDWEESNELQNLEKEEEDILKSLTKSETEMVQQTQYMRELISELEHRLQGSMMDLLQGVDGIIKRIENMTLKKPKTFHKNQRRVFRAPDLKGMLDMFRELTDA
UniProt Q9BXW4, residues 1-126: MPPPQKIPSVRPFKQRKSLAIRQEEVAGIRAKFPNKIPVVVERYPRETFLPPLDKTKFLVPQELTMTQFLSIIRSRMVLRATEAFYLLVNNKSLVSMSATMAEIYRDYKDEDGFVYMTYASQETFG
UniProt O95166: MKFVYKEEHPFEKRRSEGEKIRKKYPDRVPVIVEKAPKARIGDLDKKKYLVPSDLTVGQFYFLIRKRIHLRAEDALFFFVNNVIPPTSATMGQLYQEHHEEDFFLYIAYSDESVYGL
UniProt P60520: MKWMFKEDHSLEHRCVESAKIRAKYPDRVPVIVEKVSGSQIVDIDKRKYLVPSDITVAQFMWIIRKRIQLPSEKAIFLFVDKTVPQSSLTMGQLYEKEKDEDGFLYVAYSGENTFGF

Experiments:
[1] = target: W196A RhT5 88–296 EK/RD (Rhesus macaque) (UniProt Q0PF16); assay: AUC; sedimentation velocity, c(s) analysis of equimolar mixtures, 20 μM each; 20 °C, 50,000 rpm; 10 mM Tris/HCl pH 8, 150 mM NaCl, 0.1 mM TCEP; shift of the fast-moving peak; both purified
[2] = target: Trim5α from Rhesus macaque, Bbox coiled-coil regions, residues 88–296 with the E120K/R121D mutation (Rhesus macaque) (UniProt Q0PF16); assay: as above

Substance	binding [1]	binding [2]
LC3C (from UniProt Q9BXW4 1-126)	no binding (tested: 20 μM each)	binds
LC3A (from UniProt Q9H492 1-121)	no binding (tested: 20 μM each)	binds
GABARAP (from UniProt O95166 1-117)	binds	binds
GABARAPL2 (from UniProt P60520 1-117)	no binding (tested: 20 μM each)	binds
